Data published in patent US9133439B2, “Differentiation of human embryonic stem cells” (Janssen Biotech, Inc., priority 2009, dated 2015).

What was measured:
[1] = tested on: NKX6.1 expression in differentiated H1 human embryonic stem cells; assay: Example 3: confirmation screen, NKX6.1 expression by high content analysis; type: cell-based; settings: for effect on NKX6.1 expression relative to a control treatment (in words): confirmation screen, Example 3; for NKX6.1 Cell Count Ratio / NKX6.1 Intensity RATIO: 2.5 uM, steps 3 and 4, triplicate, relative to control treatment
[2] = tested on: NGN3 expression in differentiated H1 human embryonic stem cells; assay: Example 3: confirmation screen, NGN3 expression by high content analysis; type: cell-based; settings: for effect on NGN3 expression relative to a control treatment (in words): confirmation screen, Example 3; for NGN3 Cell Count Ratio / NGN3 Intensity RATIO: 2.5 uM, steps 3 and 4, triplicate, relative to control treatment
[3] = tested on: NGN3 expression in differentiated H1 human embryonic stem cells; assay: Example 1: kinase inhibitor library screen, NGN3 expression by high content analysis after differentiation; type: cell-based; settings: for NGN3 intensity RANK, Dose Stages 3&4 / NGN3 intensity RANK, Dose Stage 3 / NGN3 intensity RANK, Dose Stage 4: rank order among both kinase inhibitor libraries; for fold induction at 2.5 µM: Homo sapiens, Embryonic stem cell
[4] = tested on: NGN3 expression in differentiated H1 human embryonic stem cells; settings: for NGN3 RANK: 2.5 μM compound in steps 3 and 4, with Trichostatin A, ordered ranking of top 16 hits; for NGN3 Intensity RATIO: ratio of NGN3 staining for well treated with individual compound relative to average staining in wells with DMSO alone
[5] = tested on: NKX6.1 expression in differentiated H1 human embryonic stem cells; settings: for NKX6.1 RANK: 2.5 μM compound in steps 3 and 4, with Trichostatin A, ordered ranking of top 16 hits; for NKX6.1 Intensity RATIO: ratio of NKX6.1 staining for well treated with individual compound relative to average staining in wells with DMSO alone
[6] = inhibitor dosed at stage 3 only, NGN3 total intensity as ratio to control, EMDII and BioMol kinase inhibitor libraries
[7] = inhibitor dosed at stage 4 only, NGN3 total intensity as ratio to control, EMDII and BioMol kinase inhibitor libraries
[8] = inhibitor dosed at stages 3 and 4, NGN3 total intensity as ratio to control, EMDII and BioMol kinase inhibitor libraries
[9] = 2.5 μM compound during combined stages 3 and 4, NGN3 staining intensity relative to DMSO vehicle wells
[10] = 2.5 μM compound during combined stages 3 and 4
[11] = 2.5 μM compound during stage 3 alone, NGN3 staining intensity relative to DMSO vehicle wells
[12] = 2.5 μM compound during stage 3 alone
[13] = 2.5 μM compound during stage 4 alone, NGN3 staining intensity relative to DMSO vehicle wells
[14] = 2.5 μM compound during stage 4 alone
[15] = 2.5 μM compound during combined stages 3 and 4, NGN3 staining intensity relative to DMSO vehicle wells, read-out: NGN3 intensity RATIO, Dose Stages 3&4
[16] = 2.5 μM compound during stage 3 alone, NGN3 staining intensity relative to DMSO vehicle wells, read-out: NGN3 intensity RATIO, Dose Stage 3
[17] = 2.5 μM compound during stage 4 alone, NGN3 staining intensity relative to DMSO vehicle wells, read-out: NGN3 intensity RATIO, Dose Stage 4

Structure (SMILES) | NGN3 Intensity RATIO, Dose Stage 3 [3, 6] | NGN3 Intensity RATIO, Dose Stage 4 [3, 7] | NGN3 Intensity RATIO, Dose Stages 3 & 4 [3, 8] | NKX6.1 Cell Count Ratio [1] | NKX6.1 Intensity RATIO [1] | NGN3 RANK [4] | NGN3 Intensity RATIO [4] | NKX6.1 RANK [5] | NKX6.1 Intensity RATIO [5] | NGN3 Cell Count Ratio [2] | NGN3 Intensity RATIO [2] | NGN3 Intensity RATIO, Dose Stages 3 & 4 [3, 9] | NGN3 intensity RANK, Dose Stages 3&4 [3, 10] | NGN3 Intensity RATIO, Dose Stage 3 [3, 11] | NGN3 intensity RANK, Dose Stage 3 [3, 12] | NGN3 Intensity RATIO, Dose Stage 4 [3, 13] | NGN3 intensity RANK, Dose Stage 4 [3, 14] | also measured
CC(C)c1cnc(NC(=O)Cc2ccccc2)s1 [BML-259] |  |  |  |  |  |  |  |  |  |  |  |  |  |  |  |  |  | effect on NKX6.1 expression relative to a control treatment (in words) [1]: no enhancing effects; effect on NGN3 expression relative to a control treatment (in words) [2]: no enhancing effects
CN(C)CCCn1cc(C2=C(c3c[nH]c4ccccc34)C(=O)NC2=O)c2ccccc21 [GF 109203X] | 0.99 | 1.29 | 1.04 | 5.20 | 3.57 | 11 | 1.53 | 6 | 4.54 | 4.17 | 3.33 |  |  |  |  |  |  | 
O=C1Nc2ccc(I)cc2/C1=C/c1cc(Br)c(O)c(Br)c1 [GW 5074] | 1.35 | 0.77 | 0.94 | 2.77 | 2.32 | 8 | 1.78 | 10 | 3.48 | 3.15 | 2.79 |  |  |  |  |  |  | 
CC1CNCCN1S(=O)(=O)c1cccc2cnccc12 (stereo not drawn) [H-7] | 1.93 | 2.18 | 2.08 | 2.02 | 1.88 |  | 1.26 |  | 1.99 | 2.75 | 2.44 | 2.08 | 6 | 1.93 | 5 | 2.18 | 5 | 
NCCNS(=O)(=O)c1cccc2cnccc12 [H-9] | 2.62 | 1.97 | 1.36 | 1.93 | 1.76 | 1 | 2.24 | 1 | 7.36 | 2.85 | 2.47 | 1.36 | 26 | 2.62 | 1 | 1.97 | 6 | 
NC(N)=NCCNS(=O)(=O)c1cccc2cnccc12 [HA-1004] | 1.82 | 2.30 | 1.63 | 2.83 | 2.66 | 10 | 1.55 | 8 | 3.88 | 2.77 | 2.49 | 1.63 | 17 | 1.82 | 6 | 2.30 | 3 | 
O=C1Cc2c([nH]c3ccc(Br)cc23)-c2ccccc2N1 [Kenpaullone] |  |  |  | 0.53 | 0.45 | 15 | 1.32 | 11 | 3.18 | 1.52 | 1.40 |  | 53 |  | 14 |  | 23 | fold induction at 2.5 µM [3, 15]: 1.03; fold induction at 2.5 µM [3, 16]: 1.66; fold induction at 2.5 µM [3, 17]: 1.32; effect on NKX6.1 expression relative to a control treatment (in words) [1]: no enhancing effects; effect on NGN3 expression relative to a control treatment (in words) [2]: no enhancing effects
O=c1cc(N2CCOCC2)oc2c(-c3ccccc3)cccc12 [LY 294002] | 1.82 | 1.63 | 2.46 | 6.54 | 6.60 | 3 | 2.18 | 2 | 6.84 | 4.93 | 4.43 |  | 2 |  | 7 |  | 9 | fold induction at 2.5 µM [3, 15]: 2.46; fold induction at 2.5 µM [3, 16]: 1.82; fold induction at 2.5 µM [3, 17]: 1.63
CC(=O)c1c(O)c(C)c(O)c(Cc2c(O)c3c(c(C(=O)/C=C/c4ccccc4)c2O)OC(C)(C)C=C3)c1O [Rottlerin] | 0.61 | 0.39 | 0.45 |  |  |  | 0.56 |  | 0.96 |  |  |  |  |  |  |  |  | 
CC(C)(C)c1cc(C=C(C#N)C#N)cc(C(C)(C)C)c1O [Tyrphostin 9] | 0.58 | 0.40 | 0.34 |  |  |  | 0.29 |  | 0.29 |  |  |  |  |  |  |  |  | 
N#C/C(=C\c1ccc(O)c(O)c1)C(N)=O [Tyrphostin 46] | 1.22 | 1.40 | 0.84 |  |  |  | 0.82 | 13 | 2.54 |  |  | 0.84 | 85 | 1.22 | 66 | 1.40 | 21 | 
COc1cc2ncnc(Nc3cccc(Cl)c3)c2cc1OC [Tyrphostin AG 1478] | 1.62 | 1.57 | 1.74 |  |  | 7 | 1.89 | 14 | 2.41 |  |  | 1.74 | 14 | 1.62 | 15 | 1.57 | 10 | 
C[C@@H](N)[C@H]1CC[C@H](C(=O)Nc2ccncc2)CC1 [Y-27632] |  |  |  |  |  | 14 | 1.40 |  | 1.31 |  |  |  |  |  |  |  |  | fold induction at 2.5 µM [3, 15]: 1.78; fold induction at 2.5 µM [3, 16]: 0.84; fold induction at 2.5 µM [3, 17]: 2.67

Read-outs that look alike come from different tables or passages of the source.
